From patent US20170299608A1 (NGM BIOPHARMACEUTICALS, published 2017)

Key:
[1] = target: T1, mature human GDF15 (112 amino acids) (human, UniProt Q99988 197-308); experiment: cell-based or functional assay
T1 sequence: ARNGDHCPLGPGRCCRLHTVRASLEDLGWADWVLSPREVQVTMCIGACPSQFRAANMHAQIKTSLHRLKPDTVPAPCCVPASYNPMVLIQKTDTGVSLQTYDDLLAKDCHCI

[2] = target: T2, ^125I-GDF15 (radio-iodinated mature human GDF15) (human, UniProt Q99988 197-308, 125I label, site not stated); experiment: radio-ligand competition: soluble GFRAL-Fc inhibiting binding of 0.15 nM ^125I-GDF15 to HEK293-GFRAL cells
T2 construct: Labelled form of m1; also called radio-labeled GDF15
T2 sequence: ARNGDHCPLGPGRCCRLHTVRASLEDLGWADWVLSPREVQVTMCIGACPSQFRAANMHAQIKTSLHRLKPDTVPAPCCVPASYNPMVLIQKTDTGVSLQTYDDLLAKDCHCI
Method: HEK293-GFRAL cells were suspended in ice-cold binding buffer (Dulbecco's modified Eagle's medium containing 2 mg/ml BSA, and 25 mM HEPES, pH 7.4) and transferred to pre-wetted Multiscreen filter plates (96-well Dura PVDF 0.65 um Opaque; Millipore), which were kept on ice. Typically, 1×10⁵ of cells in 25 μl were used per well. […] Plates were then transferred to a vacuum filtration manifold (Pall Corporation) and supernatants were filtered. Each well was washed four times with 100 μl of ice cold binding buffer. Bound ¹²⁵I-GDF15 (CPM) were measured by scintillation counting (150 μl/well of EcoLite, MP Biomedicals, Santa Anna, Calif.) using MicroBeta2 Plate Counter (Perkin Elmer). The concentrations (in nM) of unlabeled inhibitors used in this experiment are as follows. GDF15 and GFRAL-Fc: 100, 25, 6.25, 1.56, 0.39, 0.098, 0.024, 0.006; 1M03: 1000, 250, 62.5, 15.63, 3.91, 0.98, 0.24, 0.06.

B1: GFRAL-Fc (extracellular domain of hGFRAL fused to Fc) (Fc fusion)
chain: QTNNCTYLREQCLRDANGCKHAWRVMEDACNDSDPGDPCKMRNSSYCNLSIQYLVESNFQFKECLCTDDFYCTVNKLLGKKCINKSDNVKEDKFKWNLTTRSHHGFKGMWSCLEVAEACVGDVVCNAQLASYLKACSANGNPCDLKQCQAAIRFFYQNIPFNIAQMLAFCDCAQSDIPCQQSKEALHSKTCAVNMVPPPTCLSVIRSCQNDELCRRHYRTFQSKCWQRVTRKCHEDENCISTLSKQDLTCSGSDDCKAAYIDILGTVLQVQCTCRTITQSEESLCKIFQHMLHRKSCFNYPTLSNVKGMALYTRKHANKITLTGFHSPFNGEGGGGS[… human IgG1 Fc …]
notes: also called GFRAL-Fc protein; Recombinant GFRAL-Fc
- IC50 for inhibition of GDF15 (1 nM)-mediated reporter activation in HEK293T cells expressing GFRAL and RET [1]: 9.5 nM
- IC50 [2]: 0.56 nM
